In all, about 360,000 compounds went through this assay and about 2,600 (0.72%) were called active. Inconclusive results, whose numbers are uncertain, are shown with a selection of clear calls. Calls come from the whole dose curve; as a rule, active = well fitted inhibition curve with a large enough effect; inconclusive = small, poorly fitted or top-dose-only effect; inactive = no such curve, though single readings can be large or run the other way. Potencies of inconclusive entries are doubtful fits and often do not repeat.
Test: Primary qHTS for Inhibitors of ATXN expression; note: nearly all actives have a fitted effect of over 55% in size
Conditions: HEK-293 ATXN2-luciferase reporter, luminescence, 24 h; activity change, negative = inhibition: at 57 µM (top of the series)
How it was run: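 ATXN2-luciferase reporter cells (luciferase flanked by upstream and downstream ATXN2 gene portions) were treated 24 h at 37 °C with compounds at up to 57 uM. SteadyGlo luminescence gave expression; GF-AFC fluorescence gave viability.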
In the case of `COc1ccc2cc3cc(C(=O)Nc4ccccc4N4CCN(C)CC4)oc3nc2c1`, the Potency is reported as inconclusive: 31.6 µM [inhibitor, partial curve, poor fit].
For `COc1ccc(C)c2sc(N(CCN(C)C)C(=O)/C=C/c3cccs3)nc12`, the Potency was inconclusive: 28.2 µM [inhibitor, single point].
With `O=C(/C=C/c1cccc([N+](=O)[O-])c1)Nn1c(-c2ccccc2F)nc2ccccc2c1=O` the “activity change, negative = inhibition” value was inactive: -22.4%.
For `Cn1cnc(S(=O)(=O)N2CCCCC2c2cc(C(=O)Nc3cccc(C#N)c3)no2)c1` (configuration not stated), the “activity change, negative = inhibition” value was inactive: 2.77%.
For `CCc1c(C#N)c(SCCC(=O)Nc2ccc(F)cc2)nc2c1C(=O)CC(C)(C)C2`, the Potency was inconclusive: 28.2 µM [inhibitor, single point].
In the case of `CC(C)OC(=O)c1cc2c(OCC(O)CNC(C)(C)C)cccc2[nH]1` (configuration not stated), the “activity change, negative = inhibition” value is reported as inactive: -28.8%.
For `Cc1cc(/C=N\NC(=O)CC(=O)NC2CCCCC2)c(C)n1-c1ccc(Cl)c(Cl)c1`, the Potency was inconclusive: 31.6 µM [inhibitor, partial curve, poor fit].
With `Cc1nn(-c2ccccc2)c(-n2cccc2)c1C(=O)NCc1ccccc1Cl` the Potency was inconclusive: 39.8 µM [inhibitor, single point].
In the case of `Cc1oc(-c2ccc(Cl)cc2)nc1CS(=O)CC(=O)NCCCN1CCN(Cc2ccccc2)CC1` (configuration not stated), the Potency is reported as inconclusive: 3.55 µM [inhibitor, full curve].
For `CN(C)CCN1C(=O)C(=O)/C(=C(/O)c2ccc(S(=O)(=O)N3CCOCC3)cc2)C1c1ccc(F)cc1` (configuration not stated), the “activity change, negative = inhibition” value was inactive: 1.17%.
In the case of `O=C1NCCN(Cc2ccc(-c3ccccc3)cc2)C1CC(=O)N1CCN(CCO)CC1` (configuration not stated), the “activity change, negative = inhibition” value is reported as inactive: -5.37%.
With `CCCCOc1nc2ccccc2nc1C(C#N)S(=O)(=O)c1ccccc1` (configuration not stated) the Potency was inconclusive: 10 µM [inhibitor, partial curve, poor fit].
For `CN(C)CCN1CCN(C(c2cc3ccccc3o2)c2nnnn2C(C)(C)C)CC1` (configuration not stated), the “activity change, negative = inhibition” value was inactive: 16.2%.
With `COc1ccc(CNCC(O)(c2ccc(Cl)cc2)c2ccc(Cl)cc2)cc1OC` the Potency was inconclusive: 28.2 µM [inhibitor, partial curve, poor fit].
With `Cc1ccc(C(CC(=O)NCC2(c3ccccc3)CCCC2)c2ccccc2)c(O)c1` (configuration not stated) the Potency was inconclusive: 35.5 µM [inhibitor, single point].
In the case of `CCOC(=O)C(Cc1ccnc2ccccc12)=NO`, the “activity change, negative = inhibition” value is reported as inactive: -6.03%.
In the case of `c1csc(-c2nnc(N3CCCCCC3)c3ccccc23)c1`, the “activity change, negative = inhibition” value is reported as inactive: 47.2%.
In the case of `CCCCCCCCCCCCCCCC(O)C[N+](C)(C)CCO` (configuration not stated), the “activity change, negative = inhibition” value is reported as inactive: -29.7%.
For `CCN(CCCn1c(=S)[nH]c2ccc(N3CCOCC3)cc2c1=O)c1ccccc1`, the Potency was inconclusive: 29.9 µM [inhibitor, single point].
In the case of `Cn1ncc2c(Nc3cccc(Cl)c3)nc(Nc3cccc(Cl)c3)nc21`, the activity change, negative = inhibition is reported as inconclusive: -59.2% [inhibitor].
In the case of `COc1cc(-c2nc(C(=O)NC3CCN(Cc4ccccc4)CC3)cc3c2[nH]c2ccccc23)cc(OC)c1OC`, the “activity change, negative = inhibition” value is reported as inactive: -30.9%.
For `CCC(/C=C1\Sc2ccc(OC)cc2N1CCO)=C\c1sc2ccc(OC)cc2[n+]1CCO`, the Potency was inconclusive: 28.2 µM [inhibitor, single point].
For `O=[N+]([O-])c1cc(Cl)cc(/C=N\Nc2ccccn2)c1O`, the Potency was active: 7.08 µM.
For `CCCC(C)C(=O)Nc1nc(C)c(-c2csc(Nc3ccc(Cl)cc3)n2)s1` (configuration not stated), the Potency was inconclusive: 22.4 µM [inhibitor, partial curve, poor fit].
For `Cc1ccsc1/C=C1/SC(N2CC(C)OC(C)C2)=NC1=O` (configuration not stated), the “activity change, negative = inhibition” value was inactive: -15.1%.
In the case of `Cc1ccsc1-c1nc(CSCC(=O)N2CCN(c3ccccc3)CC2)c(C)o1`, the Potency is reported as inconclusive: 33.6 µM [inhibitor, single point].
In the case of `COCCN(C(=O)COC(=O)C1CCC(C(C)(C)C)CC1)c1c(N)n(Cc2ccccc2)c(=O)[nH]c1=O` (configuration not stated), the Potency is reported as inconclusive: 35.5 µM [inhibitor, partial curve, poor fit].
For `COc1ccc(/C=N\NC(=O)CNC(=O)C(c2ccccc2)c2ccccc2)cc1[N+](=O)[O-]`, the Potency was inconclusive: 0.532 µM [inhibitor, partial curve, poor fit].
With `Cc1ccc2[nH]c(O)c(N=NC(=O)C3CC3c3ccccc3)c2c1Br` (configuration not stated) the Potency was inconclusive: 28.2 µM [inhibitor, single point].
In the case of `CC1=NN(c2ccc(Cl)cc2)C(=O)C1C(c1ccccc1O)c1c(C)[nH]n(-c2ccc(Cl)cc2)c1=O` (configuration not stated), the “activity change, negative = inhibition” value is reported as inactive: -12.9%.
In the case of `COc1cc(/C=C/C(=O)c2ccc(O)cc2)ccc1OCC#N`, the Potency is reported as inconclusive: 25.1 µM [inhibitor, single point].
With `COc1ccc2cc(CNCCOCCOCCNCc3ccc4cc(OC)ccc4c3)ccc2c1` the Potency was inconclusive: 18.9 µM [inhibitor, partial curve, poor fit].
For `CCCc1c(-c2ccccc2F)ncn1Cc1ccccc1OC`, the Potency was inconclusive: 31.6 µM [inhibitor, single point].
In the case of `Cc1ccc(C(=O)N/C(=C\c2ccc([N+](=O)[O-])cc2)C(=O)NCCc2ccccc2)cc1`, the “activity change, negative = inhibition” value is reported as inactive: -7.16%.
With `CCC(C)Sc1cccc(-c2nc3ccc(Cl)cn3c2NCc2ccccc2)c1` (configuration not stated) the “activity change, negative = inhibition” value was inactive: -31.8%.
For `COc1cccc(-c2sc3ccc(OC)cc3c2-c2ccc(OCCN3CCCC3)cc2)c1`, the Potency was inconclusive: 28.2 µM [inhibitor, single point].
For `CCc1nc2c(sc3nc4c(cc32)COC(C)(C)C4)c(=O)n1Cc1ccco1`, the “activity change, negative = inhibition” value was inactive: 6.86%.
In the case of `CCOC(=O)[C@]12CCCC=C1N(Cc1ccc3c(c1)OCO3)C(=O)[C@H](CC(=O)NCCCCc1ccccc1)C2`, the Potency is reported as inconclusive: 39.8 µM [inhibitor, single point].
For `CC[n+]1c(/C=C2\C=C(C)CC(C)(C)C2)sc2ccccc21`, the Potency was inconclusive: 20 µM [inhibitor, partial curve, poor fit].
In the case of `COc1ccc(-c2csc(N3CCN(C(=O)c4ccco4)CC3)n2)cc1`, the Potency is reported as inconclusive: 25.1 µM [inhibitor, single point].
In the case of `CCC1(c2ccc(F)cc2)NC(=O)N(CC(=O)Nc2ccc(C)c(S(=O)(=O)N3CCOCC3)c2)C1=O` (configuration not stated), the “activity change, negative = inhibition” value is reported as inactive: -6.26%.
For `COC(=O)[C@]12CCCCC=C1N(CCC1=CCCCC1)C(=O)[C@H](CC(=O)NCC13CC4CC(CC(C4)C1)C3)C2`, the “activity change, negative = inhibition” value was inactive: 0%.
% is set by controls: 0 for no effect and ±100 for the full control effect; potency is the fitted concentration of half-maximal effect; tags give direction and shape of the fitted curve.
